Measured values reported in PubChem BioAssay AID1671188 (National Center for Advancing Translational Sciences (NCATS), 2021).
Among all 100,000 compounds or so, about 250 (0.25%) were called active. Inconclusive means that the source gave no clear call. Such entries were picked first, then a sample of the others. Calls come from the whole dose curve; as a rule, active = well fitted inhibition curve with a large enough effect; inconclusive = small, poorly fitted or top-dose-only effect; inactive = flat fitted curve, though single readings scatter. Potencies of inconclusive entries are left out as doubtful fits.

The compounds below were run against Alanine aminotransferase 2 (Homo sapiens) (UniProt Q8TD30) (assay: Primary qHTS assay for inhibitors of Glutamate pyruvate transaminase 2 (GPT2)). Conditions: Recombinant GPT2, coupled pyruvate oxidase/HRP Amplex Red fluorescence; activity change, negative = inhibition: at 57.7 µM (top of the series) unless noted; series mostly up to 57.7 µM.
Outline: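 Inhibition is scored from Amplex Red fluorescence generated when pyruvate oxidase and HRP act on pyruvate released by GPT2. Reactions contain 10ng/uL enzyme, 250uM a-KG and 2mM L-alanine and run 30 min at room temperature.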
% is set by controls: 0 for no effect and ±100 for the full control effect; potency is the fitted concentration of half-maximal effect; tags give direction and shape of the fitted curve.
Note: nearly all actives have a fitted effect of over 60% in size.

Chain of UniProt Q8TD30 (Q8TD30 whole entry, looked up): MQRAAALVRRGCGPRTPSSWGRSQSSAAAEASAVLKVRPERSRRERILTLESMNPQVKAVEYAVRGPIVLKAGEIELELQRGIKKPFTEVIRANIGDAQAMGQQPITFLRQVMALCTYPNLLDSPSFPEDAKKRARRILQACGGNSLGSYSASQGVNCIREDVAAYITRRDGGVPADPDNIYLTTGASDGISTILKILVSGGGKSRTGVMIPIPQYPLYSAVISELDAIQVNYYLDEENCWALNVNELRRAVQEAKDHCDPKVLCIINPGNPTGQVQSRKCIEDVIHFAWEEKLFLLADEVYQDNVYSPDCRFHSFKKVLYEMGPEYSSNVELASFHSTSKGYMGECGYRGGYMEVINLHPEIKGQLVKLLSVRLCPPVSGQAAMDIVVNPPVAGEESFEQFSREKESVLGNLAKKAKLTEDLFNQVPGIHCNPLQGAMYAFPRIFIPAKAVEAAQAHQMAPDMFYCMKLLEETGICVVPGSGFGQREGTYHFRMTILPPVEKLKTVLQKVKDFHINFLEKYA

SMILES | Potency | activity change, negative = inhibition | outcome
CC(C)(C)OCC1CN(Cc2ccccc2)[S+](=O)([O-])c2cccnc2O1 (configuration not stated) | inconclusive [inhibitor, full curve, poor fit] | – | –
O=C(Nc1ccncc1)c1ccnc(-c2nnc3ccc(N4CCOCC4)nn23)c1 | inconclusive [inhibitor, single point] | – | –
O=C(NCc1ccc2c(c1)OCO2)c1ccc2nnc(-c3cc(F)ccc3F)n2c1 | inconclusive [inhibitor, partial curve, poor fit] | – | –
Cc1ccc(-c2nnc3ccc(C(=O)NCc4ccccc4F)cn23)cc1 | inconclusive [inhibitor, single point] | – | –
O=C(c1ccc(C(F)(F)F)cc1)N1CCn2c(nn(-c3ccc(F)cc3F)c2=O)C1 | – | inactive: 2.21% | –
CCCN1CCC2(Cc3ccccc3CN(C(=O)CCNC(C)=O)C2)C1 (configuration not stated) | – | – | inactive
COc1ccccc1N1CCN([C@H]2[C@@H]3OC[C@@H](O3)[C@@H](NCc3ccc(-c4ccccc4)cc3)[C@@H]2O)CC1 | inconclusive [inhibitor, single point] | – | –
Cc1ccc(S(=O)(=O)NC[C@H]2OC[C@@H](NCc3cccc(C#N)c3)[C@@H]2O)cc1 | inconclusive [inhibitor, partial curve, poor fit] | – | –
COCCN1CCNc2cc(Nc3ccc(N4CCOCC4)cc3)ncc2C1 | inconclusive [inhibitor, full curve, poor fit] | – | –
CCn1cc(S(=O)(=O)N2CCCN(Cc3ccncc3)C(c3ccccc3)CC(=O)NCC2)cn1 (configuration not stated) | inconclusive [inhibitor, partial curve, poor fit] | – | –
O=C(Cn1ccc2ccccc2c1=O)N1CCCOC(Cn2cccn2)C1 (configuration not stated) | inconclusive [inhibitor, partial curve, poor fit] | – | –
Cc1cnc(C2CCNC2)n1C(C)C (configuration not stated) | inconclusive [inhibitor, single point] | – | –
C=CCCC(CN1CCSCC1)Oc1ccc(C#N)cn1 (configuration not stated) | – | inactive: -5.29% | –
CC1(C)CC[C@]2(C(=O)O)CC[C@]3(C)C(=CCC4[C@@]5(C)CC[C@H](O[C@@H]6O[C@H](C(=O)O)[C@@H](O)[C@H](O)[C@H]6O)C(C)(CO)C5CC[C@]43C)C2C1 (some centres not stated) | inconclusive [inhibitor, single point] | – | –
CN(C)CCO[C@H]1C[C@@H](O)C12CCN(C(=O)c1ccc3c(c1)OCO3)CC2 | inconclusive [inhibitor, single point] | – | –
Fc1ccc(CNc2cc3c(cn2)NCCN(Cc2ccccc2)C3)cc1 | inconclusive [inhibitor, partial curve, poor fit] | – | –
O=C(NCCc1ccccc1F)c1nc2sccn2c1-c1ccccc1 | – | – | inactive
O=C(c1c[nH]c2ccccc12)N1CCC2(CC1)CN(c1ccncn1)CC2CO (configuration not stated) | – | – | inactive
Cc1noc(C)c1[S+](=O)([O-])N1CCCC(C(=O)N2CCC(c3nc4ccncc4[nH]3)CC2)C1 (configuration not stated) | inconclusive [inhibitor, full curve, poor fit] | – | –
Cc1nn(-c2ccc(C(C)C)cc2)c(C)c1[C@@H]1C=C[C@@H](NCc2ccccc2)C1 | – | inactive: 4.84% [at 88.5 µM] | –
O=C(NCCc1ccccc1)c1ccc2c(c1)OCCN(c1ccccc1)C2 | – | – | inactive [at 88.5 µM]

SMILES | Potency | activity change, negative = inhibition | outcome
COc1ccc(N2CCC(N3CCC4(CCNCC4)C3)CC2)cc1 | inconclusive [inhibitor, partial curve] | – | –
CC(=O)N(C1CC1)C1CCOC2(CCN(C(=O)c3ccsc3)CC2)C1 (configuration not stated) | inconclusive [inhibitor, single point] | – | –
O=C(c1n[nH]c2c1CCCC2)N1CCc2nc3cc[nH]n3c(=O)c2C1 | – | – | inactive
O=C(c1cc2c(s1)CCC(C(=O)N1CCN(C3CCCC3)CC1)C2)N1CCCCCC1 (configuration not stated) | – | inactive: 1.02% | –
Cn1nc(C(=O)NC2CCN(c3cc(-c4cccs4)[nH]n3)C2)c2ccccc21 (configuration not stated) | inconclusive [inhibitor, partial curve] | – | –
CN(C)C(=O)c1nc(-c2ccc(Cl)cc2)c2ccccn12 | – | – | inactive [at 88.5 µM]
COc1ccccc1-c1nc(C(=O)N2CCCC2)n2ccncc12 | inconclusive [inhibitor, partial curve, poor fit] | – | –
CSCC(=O)N[C@H]1CCN2C(=O)c3cc(-c4ccsc4)ccc3NC(=O)[C@H]12 | inconclusive [inhibitor, full curve, poor fit] | – | –
CC(=O)OC1C(OC(=O)c2ccccc2)C2C(C)(C)CCC(OC(C)=O)C2(C)C23CCC(C)(C2)C(=O)CC13 (configuration not stated) | inconclusive [inhibitor, single point] | – | –
COc1ccccc1C(=O)N1CCCN(c2nnc3ccccn23)CC1 | inconclusive [inhibitor, single point] | – | –
Cn1c(C(=O)Nc2ccc3c(c2)OCO3)cc2c1CCN(Cc1cccc(F)c1)C2 | inconclusive [inhibitor, single point] | – | –
Cc1ccc(N2Cc3c(NCCCOC(C)C)ncnc3N(C)CC2=O)cc1 | inconclusive [inhibitor, single point] | – | –
O=C(NCc1ccccc1)c1cc2n(n1)CC(c1ccc(Cl)cc1)OC2 (configuration not stated) | inconclusive [inhibitor, full curve] | – | –
COCCC(=O)N[C@H]1CC[C@]2(C)CCC([C@H](C)C(=O)N3CCC(C)CC3)[C@H](O)[C@H]2[C@@H]1C (some centres not stated) | inconclusive [inhibitor, partial curve, poor fit] | – | –
COc1ccc(-c2cc(N3CCCC(NC(=O)c4cccc(OC)c4)C3)n[nH]2)cc1 (configuration not stated) | inconclusive [inhibitor, single point] | – | –
Cc1cc(Cn2cc3c4c(cccc42)[C@H](CC(C)C)N[C@H](C(=O)NCc2ccco2)C3)no1 | inconclusive [inhibitor, single point] | – | –
Nc1cc(-c2ccncc2)c[nH]c1=O | active: 10 µM | – | –
O=C(C=Cc1cccc(S(=O)(=O)Nc2ccccc2)c1)NO | inconclusive [inhibitor, partial curve, poor fit] | – | –
O=C(c1ccc(F)cc1)N1CCC2(CC1)CC(N(Cc1ccccc1)C1CC1)CCO2 (configuration not stated) | – | – | inactive
COc1ccc(N2CCN(C(=O)c3cc(NC(C)=O)cc4nc(C)ccc34)CC2)cc1 | inconclusive [inhibitor, partial curve] | – | –
Cn1nc(C2CCCC2)cc1NC(=O)c1cccc(Br)c1 | – | – | inactive

SMILES | Potency | activity change, negative = inhibition | outcome
Cn1nccc1C(=O)N1C[C@@H]2CCCN3CCC[C@@H]([C@H]23)[C@H]1CCCC(=O)N1CCOCC1 | – | – | inactive
CCC(CC)C(=O)NC[C@@H]1C=C(C)[C@H](Cc2nc3ccc(OC)cc3[nH]2)C[C@H]1C(C)C | – | – | inactive [at 88.5 µM]
N#Cc1ccc(Oc2ccc3c(c2)COB3O)cc1 | inconclusive [inhibitor, single point] | – | –
Cc1ccc(C2Cn3nnc(C(=O)N4CCC(C(=O)Nc5ccc(Cl)c(C)c5)CC4)c3CO2)cc1 (configuration not stated) | – | inactive: -11.3% | –
COc1cc(SC)ccc1C(=O)N[C@@H]1C=C(C(=O)N[C@H](C)C(N)=O)C[C@@H](O)[C@@H]1O | inconclusive [inhibitor, partial curve, poor fit] | – | –
CC(C)O[C@@H]1O[C@H](CO)[C@@H](O)[C@H](O)[C@H]1O | inconclusive [inhibitor, single point] | – | –
Cc1ccc2nc([C@H]3CCN(Cc4ccc(C(F)(F)F)cc4)C3)[nH]c2c1 | inconclusive [inhibitor, partial curve] | – | –
Cc1ccc(C(CC(=O)N2CCc3ccccc3C2)c2cn(C)c3ccccc23)cc1 (configuration not stated) | inconclusive [inhibitor, single point] | – | –
COc1cccc(CNC(=O)c2nn(C)c3nc(-c4ccccc4OC)ccc23)c1 | – | – | inactive
COCCN1C(=O)CS(=O)(=O)C12CCN(C(=O)c1cccc(OC)c1)CC2 | inconclusive [inhibitor, single point] | – | –
Cc1ccc(CC(=O)N2CCCN(c3cc(-c4ccc(C)c(C)c4)[nH]n3)CC2)cc1 | inconclusive [inhibitor, partial curve, poor fit] | – | –
Cc1cnc(C(=O)N2CCCCCCn3c(nnc3-c3ccc(F)cc3)CC2)cn1 | inconclusive [inhibitor, partial curve] | – | –
O=C(NCc1ccccc1Cl)C1CCCN1Cc1ccc(-c2cncnc2)cc1 (configuration not stated) | – | inactive: -4.43% | –
COc1cc(OC)cc(C(=O)Nc2ccc(Cl)c(-c3nc4ccc(N(C)C)cc4[nH]3)c2)c1 | inconclusive [inhibitor, partial curve, poor fit] | – | –
Cc1cccc(OCC(=O)c2ccc3c(c2)N(C(C)C(=O)N2CCCC2)C(=O)CO3)c1C (configuration not stated) | – | – | inactive
N#Cc1ccc(S(=O)(=O)N2CCC3(CC2)CC2C(=O)NCCN2C3)cc1 (configuration not stated) | inconclusive [inhibitor, single point] | – | –
O=C(Nc1cccc(F)c1)N1Cc2[nH]cnc2C[C@H]1c1nc(-c2ccccc2)no1 | inconclusive [inhibitor, single point] | – | –
CC1=C(COC2OC(CO)C(O)C(O)C2O)C(C(CO)C(=O)O)CC1 (configuration not stated) | inconclusive [inhibitor, single point] | – | –
O=C(c1cnc(C2CC2)nc1)N1C[C@@H](CN2CCCCCC2)[C@@H](CO)C1 | inconclusive [inhibitor, single point] | – | –
COc1ccc(C(=O)N2CCc3ccc(C(=O)NCc4ccncc4)cc32)cc1 | inconclusive [inhibitor, single point] | – | –
